Like-named read-outs stand apart in the source and are kept apart here.
System: coxsackievirus B3 97927 (CVB3 97927; I1207, I1092)
Test: microbe, parasite or virus in culture
Format: cell-based
Details: read-out: IC50 against CVB3 97927 I1207, I1092

Molecule | IC50 (Enterovirus B, HeLa, 48 h) [nM] | IC50 (HeLa cells, CPE inhibition, 48 hours, n.a. = not active) [nM]
Cc1cc(-c2noc(C(F)(F)F)n2)cc(C)c1OCCCc1cc(C(=O)NCc2ccccc2)no1 [Compound 1, N-benzyl-5-(3-{2,6-dimethyl-4-[5-(trifluoromethyl)-1,2,4-oxadiazol-3-yl]phenoxy}propyl)isoxazole-3-carboxamide] | 1400 | 
Cc1cc(-c2noc(C(F)(F)F)n2)ccc1OCCCc1cc(C(=O)N(C)C)no1 [Compound 8, N,N-dimethyl-5-(3-{2-methyl-4-[5-(trifluoromethyl)-1,2,4-oxadiazol-3-yl]phenoxy}propyl)isoxazole-3-carboxamide] | 1 | 
CN(C)C(=O)c1cc(CCCOc2ccc(-c3noc(C(F)(F)F)n3)cc2F)on1 [Compound 9, 5-(3-{2-fluoro-4-[5-(trifluoromethyl)-1,2,4-oxadiazol-3-yl]phenoxy}propyl)-N,N-dimethylisoxazole-3-carboxamide] | 19 | 
CN(C)C(=O)c1cc(CCCOc2ccc(-c3noc(C(F)(F)F)n3)cc2)on1 [Compound 11, N,N-dimethyl-5-(3-{4-[5-(trifluoromethyl)-1,2,4-oxadiazol-3-yl]phenoxy}propyl)isoxazole-3-carboxamide] | 7000 | 
Guanidine HCl [Gua- HCl, reference compound] |  | 711000

— US12583848B2, “Isoxazole-3-carboxamide derivatives and their use for treatment of diseases caused by virus infection” (Collaborations Pharmaceuticals, Inc., priority 2019, dated 2026)
